# The other results are listed elsewhere or left out.
# B1: Sebin2 (Coprinopsis cinerea), A8PE78 (protein)
# chain: MTTPFYAYCHNVQDDNTWRLGLVFANRSTADEWWRAISEATSSIPITKSITRVTPQYYTHDIRVWNMYNFFVDGNIKSISDKFRGRLFITLEYDRSGRGVSVFPPLHIVDHVSGNWYYIRSKTAPHLFWFYDETRNAIYASKEKRTRFKVSIRNPSPQTPKDAIMINSDDVVIHIKESLYVGVDSYLGHIIPTRAYRTFKFGELEGGAIAGIEVAENAEERCSSTFDGASLYFVGPDSSSPGEPWELV
# How the values were obtained:
# Assay in all cases: glycan array binding signal (z-score within array); higher = stronger binding
# Conditions in all cases: glycan notation: IUPAC condensed, linker removed
# [1] = biological target: Neu5Ac(a2-3)Gal6S(b1-4)[Fuc(a1-3)]GlcNAc
# How it was run: (§1)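 The binding signal is a Z-score computed within each array. Data were drawn from 3228 arrays in the Consortium for Functional Glycomics database, restricted to those with a known protein sequence. Scores were averaged over arrays of the same protein sequence at different concentrations or buffers, and over linkers, and negative values can be taken as non-binding.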
# Neu5Ac(a2-3)GalNAc = biological target: Neu5Ac(a2-3)GalNAc
# How it was run: as §1
# [2] = biological target: Neu5Ac(a2-3)GalNAc(b1-4)GlcNAc
# How it was run: as §1
# [3] = biological target: Neu5Ac(a2-3)[GalNAc(b1-4)]Gal(b1-4)Glc
# How it was run: as §1
# [4] = biological target: Neu5Ac(a2-3)[GalNAc(b1-4)]Gal(b1-4)GlcNAc
# How it was run: as §1
# [5] = biological target: Neu5Ac(a2-3)[GalNAc(b1-4)]Gal(b1-4)GlcNAc(b1-3)GalNAc
# How it was run: as §1
# [6] = biological target: Neu5Ac(a2-3)[Neu5Ac(a2-6)]GalNAc
# How it was run: as §1
# Neu5Ac(a2-6)Gal = biological target: Neu5Ac(a2-6)Gal
# How it was run: as §1
# [7] = biological target: Neu5Ac(a2-6)Gal(b1-3)GlcNAc(b1-3)[Gal(b1-4)GlcNAc(b1-6)]Gal(b1-4)Glc
# How it was run: as §1
# Neu5Ac(a2-6)Gal(b1-4)Glc = biological target: Neu5Ac(a2-6)Gal(b1-4)Glc
# How it was run: as §1
# [8] = biological target: Neu5Ac(a2-6)Gal(b1-4)GlcNAc
# How it was run: as §1
# [9] = biological target: Neu5Ac(a2-6)Gal(b1-4)GlcNAc(b1-2)Man
# How it was run: as §1
# [10] = biological target: Neu5Ac(a2-6)Gal(b1-4)GlcNAc(b1-2)Man(a1-3)Man(b1-4)GlcNAc(b1-4)GlcNAc
# How it was run: as §1
# [11] = biological target: Neu5Ac(a2-6)Gal(b1-4)GlcNAc(b1-2)Man(a1-3)[Gal(b1-4)GlcNAc(b1-2)Man(a1-6)]Man(b1-4)GlcNAc(b1-4)GlcNAc
# How it was run: as §1
# [12] = biological target: Neu5Ac(a2-6)Gal(b1-4)GlcNAc(b1-2)Man(a1-3)[GlcNAc(b1-2)Man(a1-6)]Man(b1-4)GlcNAc(b1-4)GlcNAc
# How it was run: as §1
# [13] = biological target: Neu5Ac(a2-6)Gal(b1-4)GlcNAc(b1-2)Man(a1-3)[GlcNAc(b1-4)][Neu5Ac(a2-6)Gal(b1-4)GlcNAc(b1-2)Man(a1-6)]Man(b1-4)GlcNAc(b1-4)GlcNAc
# How it was run: as §1
# [14] = biological target: Neu5Ac(a2-6)Gal(b1-4)GlcNAc(b1-2)Man(a1-3)[Man(a1-6)]Man(b1-4)GlcNAc(b1-4)GlcNAc
# How it was run: as §1
# [15] = biological target: Neu5Ac(a2-6)Gal(b1-4)GlcNAc(b1-2)Man(a1-3)[Neu5Ac(a2-3)Gal(b1-4)GlcNAc(b1-2)Man(a1-6)]Man(b1-4)GlcNAc(b1-4)GlcNAc
# How it was run: as §1
# [16] = biological target: Neu5Ac(a2-6)Gal(b1-4)GlcNAc(b1-2)Man(a1-3)[Neu5Ac(a2-6)Gal(b1-4)GlcNAc(b1-2)Man(a1-6)]Man(b1-4)GlcNAc(b1-4)GlcNAc
# How it was run: as §1
# [17] = biological target: Neu5Ac(a2-6)Gal(b1-4)GlcNAc(b1-2)Man(a1-3)[Neu5Ac(a2-6)Gal(b1-4)GlcNAc(b1-2)Man(a1-6)]Man(b1-4)GlcNAc(b1-4)[Fuc(a1-6)]GlcNAc
# How it was run: as §1
# [18] = biological target: Neu5Ac(a2-6)Gal(b1-4)GlcNAc(b1-2)Man(a1-6)Man(b1-4)GlcNAc(b1-4)GlcNAc
# How it was run: as §1
# [19] = biological target: Neu5Ac(a2-6)Gal(b1-4)GlcNAc(b1-2)Man(a1-6)[Gal(b1-4)GlcNAc(b1-2)Man(a1-3)]Man(b1-4)GlcNAc(b1-4)GlcNAc
# How it was run: as §1
# [20] = biological target: Neu5Ac(a2-6)Gal(b1-4)GlcNAc(b1-2)Man(a1-6)[GlcNAc(b1-2)Man(a1-3)]Man(b1-4)GlcNAc(b1-4)GlcNAc
# How it was run: as §1
# [21] = biological target: Neu5Ac(a2-6)Gal(b1-4)GlcNAc(b1-2)Man(a1-6)[Man(a1-3)]Man(b1-4)GlcNAc(b1-4)GlcNAc
# How it was run: as §1
# [22] = biological target: Neu5Ac(a2-6)Gal(b1-4)GlcNAc(b1-2)[Neu5Ac(a2-6)Gal(b1-4)GlcNAc(b1-4)]Man(a1-3)[GlcNAc(b1-4)][Neu5Ac(a2-6)Gal(b1-4)GlcNAc(b1-2)[Neu5Ac(a2-6)Gal(b1-4)GlcNAc(b1-6)]Man(a1-6)]Man(b1-4)GlcNAc(b1-4)GlcNAc
# How it was run: as §1
# [23] = biological target: Neu5Ac(a2-6)Gal(b1-4)GlcNAc(b1-2)[Neu5Ac(a2-6)Gal(b1-4)GlcNAc(b1-4)]Man(a1-3)[GlcNAc(b1-4)][Neu5Ac(a2-6)Gal(b1-4)GlcNAc(b1-4)Man(a1-6)]Man(b1-4)GlcNAc(b1-4)GlcNAc
# How it was run: as §1
# [24] = biological target: Neu5Ac(a2-6)Gal(b1-4)GlcNAc(b1-2)[Neu5Ac(a2-6)Gal(b1-4)GlcNAc(b1-6)]Man(a1-6)[Neu5Ac(a2-6)Gal(b1-4)GlcNAc(b1-2)Man(a1-3)][GlcNAc(b1-4)]Man(b1-4)GlcNAc(b1-4)GlcNAc
# How it was run: as §1
# [25] = biological target: Neu5Ac(a2-6)Gal(b1-4)GlcNAc(b1-3)Gal(b1-3)GlcNAc
# How it was run: as §1
# [26] = biological target: Neu5Ac(a2-6)Gal(b1-4)GlcNAc(b1-3)Gal(b1-4)GlcNAc
# How it was run: as §1
# [27] = biological target: Neu5Ac(a2-6)Gal(b1-4)GlcNAc(b1-3)Gal(b1-4)GlcNAc(b1-2)Man(a1-3)[Neu5Ac(a2-6)Gal(b1-4)GlcNAc(b1-3)Gal(b1-4)GlcNAc(b1-2)Man(a1-6)]GalNAc
# How it was run: as §1
# [28] = biological target: Neu5Ac(a2-6)Gal(b1-4)GlcNAc(b1-3)Gal(b1-4)GlcNAc(b1-3)Gal(b1-4)GlcNAc
# How it was run: as §1
# [29] = biological target: Neu5Ac(a2-6)Gal(b1-4)GlcNAc(b1-3)Gal(b1-4)GlcNAc(b1-3)Gal(b1-4)GlcNAc(b1-2)Man(a1-3)[Neu5Ac(a2-6)Gal(b1-4)GlcNAc(b1-3)Gal(b1-4)GlcNAc(b1-3)Gal(b1-4)GlcNAc(b1-2)Man(a1-6)]GalNAc
# How it was run: as §1
# [30] = biological target: Neu5Ac(a2-6)Gal(b1-4)GlcNAc(b1-3)Gal(b1-4)GlcNAc(b1-3)GalNAc
# How it was run: as §1
# [31] = biological target: Neu5Ac(a2-6)Gal(b1-4)GlcNAc(b1-3)Gal(b1-4)GlcNAc(b1-3)[Neu5Ac(a2-6)Gal(b1-4)GlcNAc(b1-3)Gal(b1-4)GlcNAc(b1-6)]GalNAc
# How it was run: as §1
# [32] = biological target: Neu5Ac(a2-6)Gal(b1-4)GlcNAc(b1-3)Gal(b1-4)GlcNAc(b1-6)[Gal(b1-3)]GalNAc
# How it was run: as §1
# [33] = biological target: Neu5Ac(a2-6)Gal(b1-4)GlcNAc(b1-3)Gal(b1-4)[Fuc(a1-3)]GlcNAc(b1-3)Gal(b1-4)[Fuc(a1-3)]GlcNAc
# How it was run: as §1
# [34] = biological target: Neu5Ac(a2-6)Gal(b1-4)GlcNAc(b1-3)GalNAc
# How it was run: as §1
binder,measurement,setting,value
B1,glycan array binding signal (z-score),[1],-0.392
same,glycan array binding signal (z-score),Neu5Ac(a2-3)GalNAc,-0.107
same,glycan array binding signal (z-score),[2],-0.137
same,glycan array binding signal (z-score),[3],0.058
same,glycan array binding signal (z-score),[4],-0.295
same,glycan array binding signal (z-score),[5],-0.08
same,glycan array binding signal (z-score),[6],-0.316
same,glycan array binding signal (z-score),Neu5Ac(a2-6)Gal,0.058
same,glycan array binding signal (z-score),[7],-0.616
same,glycan array binding signal (z-score),Neu5Ac(a2-6)Gal(b1-4)Glc,0.071
same,glycan array binding signal (z-score),[8],-0.242
same,glycan array binding signal (z-score),[9],0.006
same,glycan array binding signal (z-score),[10],0.253
same,glycan array binding signal (z-score),[11],-0.075
same,glycan array binding signal (z-score),[12],-0.135
same,glycan array binding signal (z-score),[13],-0.221
same,glycan array binding signal (z-score),[14],-0.012
same,glycan array binding signal (z-score),[15],0.063
same,glycan array binding signal (z-score),[16],-0.343
same,glycan array binding signal (z-score),[17],-0.2
same,glycan array binding signal (z-score),[18],0.26
same,glycan array binding signal (z-score),[19],-0.138
same,glycan array binding signal (z-score),[20],-0.064
same,glycan array binding signal (z-score),[21],0.237
same,glycan array binding signal (z-score),[22],-0.202
same,glycan array binding signal (z-score),[23],-0.054
same,glycan array binding signal (z-score),[24],0.025
same,glycan array binding signal (z-score),[25],-0.296
same,glycan array binding signal (z-score),[26],-0.581
same,glycan array binding signal (z-score),[27],-0.35
same,glycan array binding signal (z-score),[28],-0.168
same,glycan array binding signal (z-score),[29],0.551
same,glycan array binding signal (z-score),[30],-0.608
same,glycan array binding signal (z-score),[31],0.043
same,glycan array binding signal (z-score),[32],0.04
same,glycan array binding signal (z-score),[33],-0.035
same,glycan array binding signal (z-score),[34],-0.32
